From PubChem BioAssay AID488969 (Vanderbilt High Throughput Screening Facility, 2010)
Whole data set: some 110,000 compounds, median “z-score” near -0.1, cut for the highest 2% near 2. The list shows a part of the results.

Molecular target: Metabotropic glutamate receptor 8 (Rattus norvegicus) (UniProt P70579)
Test: mGluR8 Gi/Go-coupled signaling modulation – cell-based, rat, thallium flux, HTS, primary screen (AID 488969)
Conditions: HEK293 rat mGluR8, GIRK (G protein-gated inwardly rectifying potassium channel) thallium flux, FluoZin2; at 10 µM; stronger effect = higher value; submaximal glutamate (EC20) added with thallium

Chain of UniProt P70579 (P70579 whole entry, looked up): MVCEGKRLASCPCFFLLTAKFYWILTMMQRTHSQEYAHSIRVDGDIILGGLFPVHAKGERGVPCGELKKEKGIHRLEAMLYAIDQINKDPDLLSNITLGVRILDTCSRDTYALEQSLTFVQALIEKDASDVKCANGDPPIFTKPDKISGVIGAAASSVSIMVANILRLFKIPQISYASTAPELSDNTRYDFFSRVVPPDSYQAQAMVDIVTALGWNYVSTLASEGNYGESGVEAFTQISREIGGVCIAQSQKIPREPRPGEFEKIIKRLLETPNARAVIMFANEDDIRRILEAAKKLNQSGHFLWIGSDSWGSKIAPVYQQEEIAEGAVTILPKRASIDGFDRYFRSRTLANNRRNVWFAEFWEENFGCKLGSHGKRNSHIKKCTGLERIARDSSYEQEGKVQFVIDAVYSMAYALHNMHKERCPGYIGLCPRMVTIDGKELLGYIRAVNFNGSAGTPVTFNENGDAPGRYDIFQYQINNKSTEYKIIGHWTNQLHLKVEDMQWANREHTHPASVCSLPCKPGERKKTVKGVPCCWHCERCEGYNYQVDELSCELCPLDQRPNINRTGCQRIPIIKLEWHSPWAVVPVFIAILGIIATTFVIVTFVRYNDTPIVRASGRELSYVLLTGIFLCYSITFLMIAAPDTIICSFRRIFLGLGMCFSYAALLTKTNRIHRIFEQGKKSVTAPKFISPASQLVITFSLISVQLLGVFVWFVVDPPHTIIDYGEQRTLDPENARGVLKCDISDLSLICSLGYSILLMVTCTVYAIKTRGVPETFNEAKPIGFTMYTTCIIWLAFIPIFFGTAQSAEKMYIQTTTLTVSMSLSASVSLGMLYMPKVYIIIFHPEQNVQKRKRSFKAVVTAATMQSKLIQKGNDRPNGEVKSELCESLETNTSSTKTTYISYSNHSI

Which z-score does the source give for CCC(=O)NS(=O)(=O)c1ccc(N=NN2CCCCC2)cc1 here?
Its z-score is 0.4.

Which z-score does the source give for COc1ccccc1-c1nc(-c2ccccn2)no1 here?
The z-score was -0.234.

Which z-score does the source give for COc1cc(/C=C/C(=O)O)ccc1OCc1ccccc1C#N here?
The z-score was 0.18.

COC(=O)c1nn(-c2ccccc2)c(Sc2ccccc2)c1/C=N/O was tested. Which z-score did it give?
Its z-score is -0.23.

Which z-score does the source give for Cc1ccc(S(=O)(=O)/N=C(/Nc2c(C)n(C)n(-c3ccccc3)c2=O)c2ccc(Cl)cc2)cc1 here?
Its z-score is 0.135.

How did the z-score turn out when Brc1ccc(-c2nc3ccccc3s2)s1 was run?
The z-score was 0.0471.

COc1ccc(CCNC(=O)CC2SC(=NCCc3ccccc3)NC2=O)cc1 (stereo not given) was tested. Which z-score did it give?
The z-score was -0.264.

For CSc1cc(-c2ccc(Cl)cc2)c(C(=O)NN)s1, which z-score is on record?
The z-score was 0.0299.

How did the z-score turn out when CC(C)(C)c1ccc(OCC(=O)NNC(=O)Cc2cccs2)cc1 was run?
The z-score was -0.494.

COc1ccc(CCN2C(=O)C3C4CC(C5C(C(N)=O)=NOC45)C3C2=O)cc1OC (stereo not given) was tested. Which z-score did it give?
The z-score was -0.0306.

Which z-score does the source give for COc1ccc(OC)c(N2Cc3cc(C)c(C)cc3C2)c1 here?
The z-score was 0.286.

How did the z-score turn out when Cc1ccccc1-n1c(SCc2c(C)noc2C)nnc1-c1ccncc1 was run?
The z-score was 0.161.

Which z-score does the source give for O=C(COC(=O)CSc1ccc2ccccc2c1)Nc1ccccc1OC(F)F here?
The z-score was 0.0906.

For CCOC(=O)N1CCC(NC(=O)COc2cc(=O)n(C)c3ccccc23)CC1, which z-score is on record?
The z-score was -0.602.

Which z-score does the source give for COc1ccccc1N1C(=O)CC1(C#N)c1ccc(OCc2ccccc2)cc1 (stereo not given) here?
The z-score was -0.14.

CCOC(=O)c1sc(N)c(C(=O)OCC)c1COC(=O)C1CC(=O)N(Cc2ccco2)C1 (stereo not given) was tested. Which z-score did it give?
The z-score was -1.92.

For Cc1cc([N+](=O)[O-])ccc1NC(=O)Cc1ccc(F)cc1, which z-score is on record?
Its z-score is -0.108.

How did the z-score turn out when CC1CCN(C(=O)C2(NC(=O)Nc3cccc(F)c3)CCCCC2)CC1 was run?
The z-score was 0.5.

O=C(O)CC1Sc2nc3ccccc3n2C1=O (stereo not given) was tested. Which z-score did it give?
The z-score was -0.113.

For Cn1c(SCC(=O)NNC(=O)Cc2ccccc2)nnc1-c1ccccc1, which z-score is on record?
The z-score was 1.27.

With Cc1c(Br)c(C(F)(F)F)nn1CC(=O)NCc1ccccc1 as the molecule, how does the z-score read?
The z-score was -0.0456.

How did the z-score turn out when Cc1ccc(C2C(C#N)=C(N)N(c3ncn[nH]3)C3=C2C(=O)CC(C)(C)C3)cc1 (stereo not given) was run?
The z-score was -0.15.

How did the z-score turn out when CCN(CC)C(=O)Cn1c(=O)n(Cc2ccccc2Cl)c2c1c(=O)n(C)c(=O)n2C was run?
Its z-score is -0.17.

With COC(=O)C1=CN(C)C=C(C(=O)OC)C1c1ccsc1 as the molecule, how does the z-score read?
Its z-score is 1.71.

For COc1ccc(S(=O)(=O)N2CCCC(C(=O)NCCC3=CCCCC3)C2)cc1 (stereo not given), which z-score is on record?
The z-score was 0.0437.

For O=C(CNC(=O)C(c1ccccc1)c1ccccc1)N/N=C\c1ccc2c(c1)OCO2, which z-score is on record?
Its z-score is -0.232.

For CCN(CC)C(=O)CSc1nc(-c2ccc(C)cc2)nc2c1COC(C)(C)C2, which z-score is on record?
The z-score was -0.573.

For Cn1c(O)c(N=NC(=O)c2cc(-c3cccs3)nc3ccccc23)c2ccccc21, which z-score is on record?
Its z-score is -0.864.

COc1ccc(C)cc1S(=O)(=O)N(CC(=O)N1CCCC1)c1ccccc1 was tested. Which z-score did it give?
The z-score was 0.141.

COc1cccc(/C=C/C(=O)OCC(=O)NCC2CCCO2)c1 (stereo not given) was tested. Which z-score did it give?
The z-score was 0.184.

How did the z-score turn out when CCOC(=O)c1[nH]c2ccccc2c1NC(=O)Nc1ccc(OC)cc1 was run?
The z-score was -0.231.

COC(=O)c1ccccc1NC(=O)C1CCN(S(=O)(=O)c2cc(OC)ccc2OC)CC1 was tested. Which z-score did it give?
The z-score was -0.749.

How did the z-score turn out when COc1cc(OC)cc(C(=O)N2CCN=C2SCc2cccnc2)c1 was run?
The z-score was -0.736.

For O=C(CCN1CCN(Cc2ccccc2)CC1)Nc1ccccc1Cl, which z-score is on record?
The z-score was -0.198.

CC(=O)N1CCC(=NNC(=O)CSc2cc(C)c(Br)cc2C)CC1 was tested. Which z-score did it give?
The z-score was -0.115.

Which z-score does the source give for Cc1ccc(-c2nn(Cc3ccccc3)cc2/C=C/C(=O)O)cc1 here?
Its z-score is -0.493.

For COc1ccc(NC(=O)c2n[nH]c(=O)c3ccccc23)cc1S(=O)(=O)N1CCCCC1, which z-score is on record?
Its z-score is -0.493.

With CC(NC(=O)c1cccnc1)c1ccc2c(c1)OCO2 (stereo not given) as the molecule, how does the z-score read?
The z-score was 0.17.

With CCOC(=O)C1=C(CSc2nnnn2C)N(C)C(=O)NC1c1ccccc1 (stereo not given) as the molecule, how does the z-score read?
Its z-score is 0.291.

O=C(Nc1ccc(NC(=O)C2CC2)nc1)c1cccc(F)c1 was tested. Which z-score did it give?
Its z-score is -0.42.

COc1ccc(-c2noc(CSc3nc4ccccc4c(=O)n3-c3ccccc3)n2)cc1OC was tested. Which z-score did it give?
The z-score was 0.0543.

Cc1csc(SCC(=O)N2CCCC2)n1 was tested. Which z-score did it give?
The z-score was -0.365.

For COc1ccc(N(C(=O)COc2ccc(C)cc2)S(=O)(=O)c2ccc(C)cc2)cc1, which z-score is on record?
The z-score was -0.00211.

How did the z-score turn out when Cc1occc1C(=O)N1CCN(S(C)(=O)=O)CC1 was run?
Its z-score is 0.0321.

With COc1ccc(-n2c(C)cc(/C=C3\C(=O)NN(c4ccccc4)C3=O)c2C)cc1 as the molecule, how does the z-score read?
Its z-score is -0.0152.

Which z-score does the source give for O=C(O)c1ccc(COc2ccccc2C=C2C(=O)c3ccccc3C2=O)cc1 here?
Its z-score is -0.35.

How did the z-score turn out when CC(=O)N(Cc1ccccc1)c1ncc2c(n1)c(=O)c(C#N)c1ccccn12 was run?
The z-score was -0.93.

How did the z-score turn out when COC(=O)Nc1ccccc1C(=O)N1CCCCC1 was run?
The z-score was -0.347.

For O=S(=O)(NC1CCCCC1Sc1ncccn1)c1ccc(Cl)cc1 (stereo not given), which z-score is on record?
Its z-score is 0.2.

For COc1ccccc1-n1cc(C(=O)NCC(=O)N2CCN(c3ccccc3)CC2)c2ccccc2c1=O, which z-score is on record?
The z-score was -0.569.

With CCOC(=O)C1=C2N(C)c3ccccc3N2CCC1=O as the molecule, how does the z-score read?
The z-score was 1.09.

With Cc1[nH]c2ccccc2c1SCCNC(=O)c1ccc(Br)o1 as the molecule, how does the z-score read?
The z-score was -1.39.

Which z-score does the source give for O=C(Nc1c(F)cc(F)cc1Br)C1CCCO1 (stereo not given) here?
The z-score was 0.171.

For CCc1ccc(NC(=O)N(CCCN2CCOCC2)C(C)c2cc3cccc(OC)c3o2)cc1 (stereo not given), which z-score is on record?
Its z-score is -0.158.

How did the z-score turn out when O=S1(=O)CC(N2CCOCC2)c2ccccc21 (stereo not given) was run?
The z-score was -0.0158.

With CS(=O)(=O)N(CC(=O)NCc1ccco1)c1cc(C(F)(F)F)ccc1Cl as the molecule, how does the z-score read?
The z-score was 0.181.

Which z-score does the source give for COc1ccc([N+](=O)[O-])cc1NC(=O)C(C)Sc1ccc(C)cc1 (stereo not given) here?
Its z-score is -0.545.

For CC(C)Oc1c(Cl)cc(CNC(C)(C)CO)cc1Cl, which z-score is on record?
Its z-score is 0.84.

For Cc1c(N=Cc2cccnc2)c(=O)n(-c2ccccc2)n1C, which z-score is on record?
Its z-score is 0.32.

With Cc1cccc2cc(COC(=O)C3CCCO3)c(=O)[nH]c12 (stereo not given) as the molecule, how does the z-score read?
Its z-score is 0.0109.

With Cc1cc(C)c2cc3c(N)c(C(=O)N4CCc5ccccc5C4)sc3nc2c1 as the molecule, how does the z-score read?
Its z-score is -0.12.

Cc1ccccc1NC(=O)CNc1ccccc1C(=O)NCc1ccco1 was tested. Which z-score did it give?
Its z-score is -0.253.

Cc1cc2c(N=NC(=O)C3CC3c3ccccc3)c(O)[nH]c2cc1Br (stereo not given) was tested. Which z-score did it give?
Its z-score is -0.449.

Which z-score does the source give for Cc1nc(N)sc1C(=O)Nc1ccccc1 here?
The z-score was 0.00498.

With CCCC1C(c2ccccc2)C(C#N)(C#N)C2(C#N)CC1(N)NC2=O (stereo not given) as the molecule, how does the z-score read?
The z-score was -0.0727.

With O=C1N=C(N2CCN(c3ccccc3)CC2)S/C1=C/c1cccs1 as the molecule, how does the z-score read?
The z-score was -0.596.

How did the z-score turn out when Cc1sc2nc(SCC(=O)c3cccs3)n(Cc3ccco3)c(=O)c2c1C was run?
The z-score was -1.14.

Which z-score does the source give for COc1ccc(C(NC(=O)c2ccc(-c3ccccc3)cc2)c2ccccc2)cc1 (stereo not given) here?
The z-score was -0.153.

How did the z-score turn out when CCOc1ccc(-n2c(C)nnc2SCC(=O)N(CC)CC)cc1 was run?
The z-score was 0.0695.

How did the z-score turn out when COc1cccc(C2SCC(=O)N2c2ccc(Cl)cc2)c1OC (stereo not given) was run?
The z-score was 0.269.
